B1: Bivalent IL-12 fusion protein FP38 (other)
heavy: QVQLVQSGAEVKKPGSSVKVSCKASGGTFSDYYLHWSRQAPGQGLEWMGWIDPENGDTEYAPKFQGRVTITADESTSTAYMELSSLRSEDTAVYYCARNKELRYIDVWGQGTLVTVSSTSGSGRSATPRGASTKGPSVFPLAPCSKSTSGGTAALGCLVKDYFPEPVTVSWNSGALTSGVHTFPAVLQSSGLYSLSSVVTVPSSSLGTQTYICNVNHKPSNTKVDKRVGGGGSGGGGS[human IgG1 Fc with changes cut from this listing]GSGGSGGSGGSGGSGGSIWELKKDVYVVELDWLPDAPGEMVVLTCDTPEEDGITWTLDQSSEVLGSGKTLTIQVKEFGDAGQYTCHKGGEVLSHSLLLLHKKEDGIWSTDILKDQKEPKNKTFLRCEAKNYSGRFTCWWLTTISTDLTFSVKSSRGSSDPQGVTCGAATLSAERVRGDNKEYEYSVECQEDSACPAAEESLPIEVMVDAVHKLKYENYTSSFFIRDIIKPDPPKNLQLKPLKNSRQVEVSWEYPDTWSTPHSYFSLTFCVQVQGKHKEKKDRVFTDKTSATVICRKNASISVRAQDRYYSSSWSEWASVPCSGGGGSGGGGSGGGGSGGGGSNLPVATPDPGMFPCLHHSQNLLRAVSNMLQKARQTLEFYPCTSEEIDHEDITKDKTSTVEACLPLELTKNESCLNSRETSFITNGSCLASRKTSFMMALCLSSIYEDLKMYQVEFKTMNAKLLMDPKRQIFLDQNMLAVIDELMQALNFNSETVPQKSSLEEPDFYKTKIKLCILLHAFRIRAVTIDRVMSYLNAS
light: DIVMTQSPLSLPVTPGEPASISCRASQSISINLHWYQQKPGQAPRQLIAFASQSISGVPSRFSGSGSGTDFTLTISSLQPEDFATYYCQQSNSFPLTFGQGTKVEIKRTVAAPSVFIFPPSDEQLKSGTASVVCLLNNFYPREAKVQWKVDNALQSGNSQESVTEQDSKDSTYSLSSTLTLSKADYEKHKVYACEVTHQGLSSPVTKSFNRGEC
B2: Bivalent IL-12 fusion protein FP39 (other)
heavy: QVQLVQSGAEVKKPGSSVKVSCKASGGTFSDYYLHWSRQAPGQGLEWMGWIDPENGDTEYAPKFQGRVTITADESTSTAYMELSSLRSEDTAVYYCARNKELRYIDVWGQGTLVTVSSTSGSGRSATPRGASTKGPSVFPLAPCSKSTSGGTAALGCLVKDYFPEPVTVSWNSGALTSGVHTFPAVLQSSGLYSLSSVVTVPSSSLGTQTYICNVNHKPSNTKVDKRVGGGGSGGGGS[human IgG1 Fc with changes cut from this listing]GSGGSGGSGGSGGSGGSIWELKKDVYVVELDWMPDAPGEMVVLTCDTPEEDGITWTLDQSSEVLGSGKTLTIQVKEFGDAGQYTCHKGGEVLSHSLLLLHKKEDGIWSTDILKDQKEPKNKTFLRCEAKNYSGRFTCWWLTTISTDLTFSVKSSRGSSDPQGVTCGAATLSAERVRGDNKEYEYSVECQEDSACPAAEESLPIEVMVDAVHKLKYENYTSSFFIRDIIKPDPPKNLQLKPLKNSRQVEVSWEYPDTWSTPHSYFSLTFCVQVQGKHKEKKDRVFTDKTSATVICRKNASISVRAQDRYYSSSWSEWASVPCSGGGGSGGGGSGGGGSGGGGSNLPVATPDPGMFPCLHHSQNLLRAVSNMLQKARQTLEFYPCTSEEIDHEDITKDKTSTVEACLPLELTKNESCLNSRETSFITNGSCLASRKTSFMMALCLSSIYEDLKMYQVEFKTMNAKLLMDPKRQIFLDQNMLAVIDELMQALNFNSETVPQKSSLEEPDFYKTKIKLCILLHAFRIRAVTIDRVMSYLNAS
light: B1 light
B3: Bivalent IL-12 fusion protein FP40 (other)
heavy: QVQLVQSGAEVKKPGSSVKVSCKASGGTFSDYYLHWSRQAPGQGLEWMGWIDPENGDTEYAPKFQGRVTITADESTSTAYMELSSLRSEDTAVYYCARNKELRYIDVWGQGTLVTVSSTSGSGRSATPRGASTKGPSVFPLAPCSKSTSGGTAALGCLVKDYFPEPVTVSWNSGALTSGVHTFPAVLQSSGLYSLSSVVTVPSSSLGTQTYICNVNHKPSNTKVDKRVGGGGSGGGGS[human IgG1 Fc with changes cut from this listing]GSGGSGGSGGSGGSGGSIWELKKDVYVVELDWQPDAPGEMVVLTCDTPEEDGITWTLDQSSEVLGSGKTLTIQVKEFGDAGQYTCHKGGEVLSHSLLLLHKKEDGIWSTDILKDQKEPKNKTFLRCEAKNYSGRFTCWWLTTISTDLTFSVKSSRGSSDPQGVTCGAATLSAERVRGDNKEYEYSVECQEDSACPAAEESLPIEVMVDAVHKLKYENYTSSFFIRDIIKPDPPKNLQLKPLKNSRQVEVSWEYPDTWSTPHSYFSLTFCVQVQGKHKEKKDRVFTDKTSATVICRKNASISVRAQDRYYSSSWSEWASVPCSGGGGSGGGGSGGGGSGGGGSNLPVATPDPGMFPCLHHSQNLLRAVSNMLQKARQTLEFYPCTSEEIDHEDITKDKTSTVEACLPLELTKNESCLNSRETSFITNGSCLASRKTSFMMALCLSSIYEDLKMYQVEFKTMNAKLLMDPKRQIFLDQNMLAVIDELMQALNFNSETVPQKSSLEEPDFYKTKIKLCILLHAFRIRAVTIDRVMSYLNAS
light: B1 light
B4: Bivalent IL-12 fusion protein FP41 (other)
heavy: QVQLVQSGAEVKKPGSSVKVSCKASGGTFSDYYLHWSRQAPGQGLEWMGWIDPENGDTEYAPKFQGRVTITADESTSTAYMELSSLRSEDTAVYYCARNKELRYIDVWGQGTLVTVSSTSGSGRSATPRGASTKGPSVFPLAPCSKSTSGGTAALGCLVKDYFPEPVTVSWNSGALTSGVHTFPAVLQSSGLYSLSSVVTVPSSSLGTQTYICNVNHKPSNTKVDKRVGGGGSGGGGS[human IgG1 Fc with changes cut from this listing]GSGGSGGSGGSGGSGGSIWELKKDVYVVELDWRPDAPGEMVVLTCDTPEEDGITWTLDQSSEVLGSGKTLTIQVKEFGDAGQYTCHKGGEVLSHSLLLLHKKEDGIWSTDILKDQKEPKNKTFLRCEAKNYSGRFTCWWLTTISTDLTFSVKSSRGSSDPQGVTCGAATLSAERVRGDNKEYEYSVECQEDSACPAAEESLPIEVMVDAVHKLKYENYTSSFFIRDIIKPDPPKNLQLKPLKNSRQVEVSWEYPDTWSTPHSYFSLTFCVQVQGKHKEKKDRVFTDKTSATVICRKNASISVRAQDRYYSSSWSEWASVPCSGGGGSGGGGSGGGGSGGGGSNLPVATPDPGMFPCLHHSQNLLRAVSNMLQKARQTLEFYPCTSEEIDHEDITKDKTSTVEACLPLELTKNESCLNSRETSFITNGSCLASRKTSFMMALCLSSIYEDLKMYQVEFKTMNAKLLMDPKRQIFLDQNMLAVIDELMQALNFNSETVPQKSSLEEPDFYKTKIKLCILLHAFRIRAVTIDRVMSYLNAS
light: B1 light
B5: Bivalent IL-12 fusion protein FP42 (other)
heavy: QVQLVQSGAEVKKPGSSVKVSCKASGGTFSDYYLHWSRQAPGQGLEWMGWIDPENGDTEYAPKFQGRVTITADESTSTAYMELSSLRSEDTAVYYCARNKELRYIDVWGQGTLVTVSSTSGSGRSATPRGASTKGPSVFPLAPCSKSTSGGTAALGCLVKDYFPEPVTVSWNSGALTSGVHTFPAVLQSSGLYSLSSVVTVPSSSLGTQTYICNVNHKPSNTKVDKRVGGGGSGGGGS[human IgG1 Fc with changes cut from this listing]GSGGSGGSGGSGGSGGSIWELKKDVYVVELDWSPDAPGEMVVLTCDTPEEDGITWTLDQSSEVLGSGKTLTIQVKEFGDAGQYTCHKGGEVLSHSLLLLHKKEDGIWSTDILKDQKEPKNKTFLRCEAKNYSGRFTCWWLTTISTDLTFSVKSSRGSSDPQGVTCGAATLSAERVRGDNKEYEYSVECQEDSACPAAEESLPIEVMVDAVHKLKYENYTSSFFIRDIIKPDPPKNLQLKPLKNSRQVEVSWEYPDTWSTPHSYFSLTFCVQVQGKHKEKKDRVFTDKTSATVICRKNASISVRAQDRYYSSSWSEWASVPCSGGGGSGGGGSGGGGSGGGGSNLPVATPDPGMFPCLHHSQNLLRAVSNMLQKARQTLEFYPCTSEEIDHEDITKDKTSTVEACLPLELTKNESCLNSRETSFITNGSCLASRKTSFMMALCLSSIYEDLKMYQVEFKTMNAKLLMDPKRQIFLDQNMLAVIDELMQALNFNSETVPQKSSLEEPDFYKTKIKLCILLHAFRIRAVTIDRVMSYLNAS
light: B1 light
B6: Bivalent IL-12 fusion protein FP43 (other)
heavy: QVQLVQSGAEVKKPGSSVKVSCKASGGTFSDYYLHWSRQAPGQGLEWMGWIDPENGDTEYAPKFQGRVTITADESTSTAYMELSSLRSEDTAVYYCARNKELRYIDVWGQGTLVTVSSTSGSGRSATPRGASTKGPSVFPLAPCSKSTSGGTAALGCLVKDYFPEPVTVSWNSGALTSGVHTFPAVLQSSGLYSLSSVVTVPSSSLGTQTYICNVNHKPSNTKVDKRVGGGGSGGGGS[human IgG1 Fc with changes cut from this listing]GSGGSGGSGGSGGSGGSIWELKKDVYVVELDWTPDAPGEMVVLTCDTPEEDGITWTLDQSSEVLGSGKTLTIQVKEFGDAGQYTCHKGGEVLSHSLLLLHKKEDGIWSTDILKDQKEPKNKTFLRCEAKNYSGRFTCWWLTTISTDLTFSVKSSRGSSDPQGVTCGAATLSAERVRGDNKEYEYSVECQEDSACPAAEESLPIEVMVDAVHKLKYENYTSSFFIRDIIKPDPPKNLQLKPLKNSRQVEVSWEYPDTWSTPHSYFSLTFCVQVQGKHKEKKDRVFTDKTSATVICRKNASISVRAQDRYYSSSWSEWASVPCSGGGGSGGGGSGGGGSGGGGSNLPVATPDPGMFPCLHHSQNLLRAVSNMLQKARQTLEFYPCTSEEIDHEDITKDKTSTVEACLPLELTKNESCLNSRETSFITNGSCLASRKTSFMMALCLSSIYEDLKMYQVEFKTMNAKLLMDPKRQIFLDQNMLAVIDELMQALNFNSETVPQKSSLEEPDFYKTKIKLCILLHAFRIRAVTIDRVMSYLNAS
light: B1 light

Molecular target: Human IL-12 receptor (human IL-12Rb1 and IL-12Rb2) (human, UniProt P42701 24-662; Q99665 24-862)
Experiment: cell-based or functional assay

Binder	Fold change (window), IL-12 luciferase assay [fold]
B1	60
B2	47.4
B3	42.1
B4	25.6
B5	44
B6	41.9
